Reference: the RNAGym collection of RNA variant scans (doi:10.7554/elife.90254)
Read counts are not given, so values of variants with three or more changes are uncertain.

B1: LINE1-mini (parent)
chain: GGCAGAGCUCAACACAGCGUGGCAAAGUGGCUGUGGCUAGACUGCC

Variants of: B1
Assay: self-cleavage, relative activity (ratio to wild type); higher = more cleavage; in vitro, sequencing; the parent is a self-cleaving ribozyme

Variant	self-cleavage
G1C A16C G21U C45A	0.02
G5A A11G C42A	0.01
C8U C10A A16C C23G G36A G40U U43A	0.01
G1U G17A G19A G22C	0.23
G5A G7C G22C C37U U43A	0.03
G17C G27C G29U	0.39
C3G G35A G36A G40A	0.48
G7A C31U U32A G36C A39U A41C	0.02
A6U C18U G36U C37G	0.03
G7C G19A U32C C45A	0.02
C3U G17A A24U C45U	0.06
A14G G19A G21A	0.75
C8U C13U C23U	0.11
G5C C8U A11C C23U C37A	0.01
C10G G36A G44A	0.03
A14G C18U C42A	0.05
U9C A14U G19C G22A C31A C45A	0.01
G22A G29U U38A	0.06
G5A C8A G17U U20C G21A C31A	0.14
G1U U9G C13G A26U G27C A39U	0.02
C31U U34A A39C G40C	0.05

Variant	self-cleavage
C8U A12U C23U G33U U38A	0.04
C23U A26C G29A G36U	0.02
C8U C15G C31U U34G G35U	0.02
A4G G5A U9C G40U	0.03
C13A G21U G27C	0.06
C3A A11C G29U	0.13
G5C U9A G17C	0.04
C3A G22A A39U C46A	0.09
A4U C13U G35U	0.09
A6U G21U A24U A26U	1.29
G7C U9G G40A U43C C46U	0.01
A12C A16U G44C	0.07
A12U A14U A25U C42A	0.01
G1C G19U G33C	0
G2A C3U G5A C13U A41C C46G	0.34
G17C A24C G29U A39U G44U	0.02
G17A G33A G36U	0.02
G22A A25G G27C	0.33
G17A G19A G33A U38A	0.01
C13A C23A A26G U28C C31A C45G C46A	0.03
G2A A4U C23G	0.71

Variant	self-cleavage
A16C G21U A26C G35A	0.08
C8U A12U C42G	0.1
G5C A25G G30C A41C	0.04
C8U C10A G27A U34A	0.03
A16G C31G U32C	0.05
G2A G7A A11G G17C	0.13
G7A C23A U32C	0.52
G19A C31G C45U	0.25
G1C C10U A11C G19A C31U G35A C42A	0
G21C A24U A25U G40A	0.07
C18G C23G G30U U43A G44U	0.01
A16C G19C C37A C45A	0.14
A16G U38A C42U	0.07
A6C A14U C15A G27C G30C	0.09
G1A A16U G21A C23U U28G G29C	0.07
A4U C10U A12U C23U	0.08
G7C C10G G17U G30A C31U U34C C42U	0.02
G5C A14C G19C U38G	0
A14C A25C C31U G33C	0.04
U9A G19A C31U U32G G40U	0.03
G5A C10G G22A G27U C45U	0.01

Variant	self-cleavage
C8A U9C C37G U38C	0.03
G17A G21A G22A C23U A41C	0
C8A G19A G22C G30U	0.11
G7U G35A G36A C42G G44U	0.05
U9C C15U U32G	0.04
A24U C31A G36C	0.12
A14U A26C U28G C46A	0.04
G17U G19C U38G A39U	0.07
A14U G19A U20C A24G A26C G44A	0.1
A6C C8A A39C	0.15
G5C A11C U20G C31A	0.03
C3A G29U C37U	0.17
C8U U20A G22C C23G G44U	0.04
A12C A16G G21U G33U	0
C8A U9G C37G A41U	0.03
A24U G27C G29A	1.77
A4U C13A A24G A41G C46G	0.2
G7A C15A U32G	0.05
C10A U20G C23U A39U	0.15
A16G G19U A25C	0.19
